# Reference: the supplement of paper PMC8728848
# The other results are listed elsewhere or left out.
# B1: Pbx2 (Cryptococcus neoformans) (protein)
# chain: AVSPLPSSTELVFYSQKRRRRRICSTATGSLSTPDPTRMTSDPYKRVGMRFSSVPRLLITFLSLLLLVSAAPPCVRFADYDSINQMFIDGGPGTKVLLCPNRLYRLSGPIIFTAADQEIATYGYPTGSERAVLRVEGRNTATAIQGDCRRCARVSVKNLVVDGNRKKLGRMRDFQLATGLVVLGGNEGQSIQNSWIKNPRGFTAIHIREGDKLQCSGARVEKNEIGPVGEEYDPEKDGDDPEMSPLGRPLADGVSIACRDSFIRDNTFRDNTDAAIVVYCSPGTLIHANHIFAQSLSAMAGILMVDSTPFNGDYTGTVVRSNIIDAVSRTIRVGIGIGPTVWSDDTETILTGGSVIGNGLKGRYMGYGIAAAGLKQWTIKDNWDEAKHEGRKSARCFDEPVNPDPIGLLYNRPTMEDCTVQSGFADHDFQYLVCIDGLYDKTNPPKHDPAPLAHDPSPTNAQEDNTVQQDGGDSKSKSIEQPREASDIEAEPSVEKMFSTGSEMMDDVLEHSHQRMHEVIDHLSRRIDILGAASAGKGSGDSKISEVLDPAMSSHLEKLQRKIEHLEFSLRSQIETAIQLRSAIQGWDQEMALVTDWEYDILLDVRHKLELSSYPHDQPLDPRLMRGQSYLNNEAVLVDDHSHPSLEGENLRAMSDRARLNANEEA
# How the values were obtained:
# Assay in all cases: glycan array binding signal (z-score within array); higher = stronger binding
# Conditions in all cases: glycan notation: IUPAC condensed, linker removed
# Fuc(a1-2)Gal = target: Fuc(a1-2)Gal
# In short: (§1)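 The binding signal is a Z-score computed within each array. Data were drawn from 3228 arrays in the Consortium for Functional Glycomics database, restricted to those with a known protein sequence. Scores were averaged over arrays of the same protein sequence at different concentrations or buffers, and over linkers, and negative values can be taken as non-binding.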
# Fuc(a1-2)Gal(b1-3)GalNAc = target: Fuc(a1-2)Gal(b1-3)GalNAc
# In short: as §1
# [1] = target: Fuc(a1-2)Gal(b1-3)GalNAc(a1-3)[Fuc(a1-2)]Gal(b1-4)Glc
# In short: as §1
# [2] = target: Fuc(a1-2)Gal(b1-3)GalNAc(a1-3)[Fuc(a1-2)]Gal(b1-4)GlcNAc
# In short: as §1
# [3] = target: Fuc(a1-2)Gal(b1-3)GalNAc(b1-3)Gal
# In short: as §1
# [4] = target: Fuc(a1-2)Gal(b1-3)GalNAc(b1-3)Gal(a1-4)Gal(b1-4)Glc
# In short: as §1
# [5] = target: Fuc(a1-2)Gal(b1-3)GalNAc(b1-4)[Neu5Ac(a2-3)]Gal(b1-4)Glc
# In short: as §1
# Fuc(a1-2)Gal(b1-3)GlcNAc = target: Fuc(a1-2)Gal(b1-3)GlcNAc
# In short: as §1
# [6] = target: Fuc(a1-2)Gal(b1-3)GlcNAc(b1-2)Man(a1-3)[Fuc(a1-2)Gal(b1-3)GlcNAc(b1-2)Man(a1-6)]Man(b1-4)GlcNAc(b1-4)GlcNAc
# In short: as §1
# [7] = target: Fuc(a1-2)Gal(b1-3)GlcNAc(b1-2)Man(a1-3)[Fuc(a1-2)Gal(b1-3)GlcNAc(b1-2)Man(a1-6)]Man(b1-4)GlcNAc(b1-4)[Fuc(a1-6)]GlcNAc
# In short: as §1
# [8] = target: Fuc(a1-2)Gal(b1-3)GlcNAc(b1-3)Gal(b1-4)Glc
# In short: as §1
# [9] = target: Fuc(a1-2)Gal(b1-3)GlcNAc(b1-3)GalNAc
# In short: as §1
# [10] = target: Fuc(a1-2)Gal(b1-3)GlcNAc(b1-3)[Fuc(a1-2)Gal(b1-3)GlcNAc(b1-6)]GalNAc
# In short: as §1
# [11] = target: Fuc(a1-2)Gal(b1-3)GlcNAc(b1-3)[Gal(b1-4)GlcNAc(b1-6)]Gal(b1-4)Glc
# In short: as §1
# [12] = target: Fuc(a1-2)Gal(b1-3)GlcNAc(b1-3)[Neu5Ac(a2-6)Gal(b1-4)GlcNAc(b1-6)]Gal(b1-4)Glc
# In short: as §1
# [13] = target: Fuc(a1-2)Gal(b1-3)GlcNAc6S
# In short: as §1
# [14] = target: Fuc(a1-2)Gal(b1-3)[Fuc(a1-4)]GlcNAc
# In short: as §1
# [15] = target: Fuc(a1-2)Gal(b1-3)[Fuc(a1-4)]GlcNAc(b1-2)Man(a1-3)[Fuc(a1-2)Gal(b1-3)[Fuc(a1-4)]GlcNAc(b1-2)Man(a1-3)]Man(b1-4)GlcNAc(b1-4)GlcNAc
# In short: as §1
# [16] = target: Fuc(a1-2)Gal(b1-3)[Fuc(a1-4)]GlcNAc(b1-2)Man(a1-3)[Fuc(a1-2)Gal(b1-3)[Fuc(a1-4)]GlcNAc(b1-2)Man(a1-6)]Man(b1-4)GlcNAc(b1-4)[Fuc(a1-6)]GlcNAc(b1-4)[Fuc(a1-6)]GlcNAc
# In short: as §1
# [17] = target: Fuc(a1-2)Gal(b1-3)[Fuc(a1-4)]GlcNAc(b1-3)[Fuc(a1-3)[Gal(b1-4)]GlcNAc(b1-6)]Gal(b1-4)Glc
# In short: as §1
# [18] = target: Fuc(a1-2)Gal(b1-3)[Fuc(a1-4)]GlcNAc(b1-3)[Gal(b1-4)GlcNAc(b1-6)]Gal(b1-4)Glc
# In short: as §1
# Fuc(a1-2)Gal(b1-4)Glc = target: Fuc(a1-2)Gal(b1-4)Glc
# In short: as §1
# Fuc(a1-2)Gal(b1-4)Glc6S = target: Fuc(a1-2)Gal(b1-4)Glc6S
# In short: as §1
# Fuc(a1-2)Gal(b1-4)GlcNAc = target: Fuc(a1-2)Gal(b1-4)GlcNAc
# In short: as §1
# [19] = target: Fuc(a1-2)Gal(b1-4)GlcNAc(b1-2)Man
# In short: as §1
# [20] = target: Fuc(a1-2)Gal(b1-4)GlcNAc(b1-2)Man(a1-3)[Fuc(a1-2)Gal(b1-4)GlcNAc(b1-2)Man(a1-6)]Man(b1-4)GlcNAc(b1-4)GlcNAc
# In short: as §1
# [21] = target: Fuc(a1-2)Gal(b1-4)GlcNAc(b1-2)Man(a1-3)[Fuc(a1-2)Gal(b1-4)GlcNAc(b1-2)Man(a1-6)]Man(b1-4)GlcNAc(b1-4)[Fuc(a1-6)]GlcNAc
# In short: as §1
# [22] = target: Fuc(a1-2)Gal(b1-4)GlcNAc(b1-2)[Fuc(a1-2)Gal(b1-4)GlcNAc(b1-4)]Man(a1-3)[Fuc(a1-2)Gal(b1-4)GlcNAc(b1-2)Man(a1-6)]Man(b1-4)GlcNAc(b1-4)GlcNAc
# In short: as §1
# [23] = target: Fuc(a1-2)Gal(b1-4)GlcNAc(b1-3)Gal(b1-4)GlcNAc
# In short: as §1
# [24] = target: Fuc(a1-2)Gal(b1-4)GlcNAc(b1-3)Gal(b1-4)GlcNAc(b1-2)Man(a1-3)[Fuc(a1-2)Gal(b1-4)GlcNAc(b1-3)Gal(b1-4)GlcNAc(b1-2)Man(a1-6)]Man(b1-4)GlcNAc(b1-4)GlcNAc
# In short: as §1
binder,measurement,setting,value
B1,glycan array binding signal (z-score),Fuc(a1-2)Gal,-0.187
same,glycan array binding signal (z-score),Fuc(a1-2)Gal(b1-3)GalNAc,-0.473
same,glycan array binding signal (z-score),[1],0.282
same,glycan array binding signal (z-score),[2],0.004
same,glycan array binding signal (z-score),[3],1.09
same,glycan array binding signal (z-score),[4],-0.097
same,glycan array binding signal (z-score),[5],-0.201
same,glycan array binding signal (z-score),Fuc(a1-2)Gal(b1-3)GlcNAc,-0.236
same,glycan array binding signal (z-score),[6],-0.501
same,glycan array binding signal (z-score),[7],-0.396
same,glycan array binding signal (z-score),[8],-0.078
same,glycan array binding signal (z-score),[9],0.009
same,glycan array binding signal (z-score),[10],0.145
same,glycan array binding signal (z-score),[11],-0.303
same,glycan array binding signal (z-score),[12],-0.281
same,glycan array binding signal (z-score),[13],0.178
same,glycan array binding signal (z-score),[14],-0.496
same,glycan array binding signal (z-score),[15],-0.029
same,glycan array binding signal (z-score),[16],-0.261
same,glycan array binding signal (z-score),[17],-0.051
same,glycan array binding signal (z-score),[18],-0.476
same,glycan array binding signal (z-score),Fuc(a1-2)Gal(b1-4)Glc,-0.088
same,glycan array binding signal (z-score),Fuc(a1-2)Gal(b1-4)Glc6S,-0.29
same,glycan array binding signal (z-score),Fuc(a1-2)Gal(b1-4)GlcNAc,-0.42
same,glycan array binding signal (z-score),[19],1.17
same,glycan array binding signal (z-score),[20],-0.408
same,glycan array binding signal (z-score),[21],-0.151
same,glycan array binding signal (z-score),[22],-0.244
same,glycan array binding signal (z-score),[23],-0.508
same,glycan array binding signal (z-score),[24],-0.11
